According to the supplement of paper PMC7335073:
In all, about 4,100 sequences were measured (“relative CpG methylation activity (normalised to average over all NNNCGNNN flanks)”: median about 0.94, highest 2% from about 1.9 on). The list shows a part of the results.

Each sequence was assayed against DNMT3B catalytic domain (mouse) (UniProt O88509) (assay: relative CpG methylation activity (normalised to average over all NNNCGNNN flanks) (relative (1 = mean)); higher = more methylation of the central CpG). Details: system: in vitro, murine catalytic domain; CpG state: hemimethylated substrate pool; residues: 558-859.
Description: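 Deep enzymology: a pool of dsDNA substrates with a central CpG flanked by 10 random nucleotides on each side was methylated by the murine DNMT3A or DNMT3B catalytic domain (0.8 mM SAM, 37 °C, 60 min). Methylation was then read out by hairpin ligation, bisulfite conversion and NGS. Values are the average methylation of each NNNCGNNN context (±3 flanks; the outer flanks are random and averaged over), normalised to the overall mean, so 1 = average activity.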

Sequence of UniProt O88509 (O88509 558-859): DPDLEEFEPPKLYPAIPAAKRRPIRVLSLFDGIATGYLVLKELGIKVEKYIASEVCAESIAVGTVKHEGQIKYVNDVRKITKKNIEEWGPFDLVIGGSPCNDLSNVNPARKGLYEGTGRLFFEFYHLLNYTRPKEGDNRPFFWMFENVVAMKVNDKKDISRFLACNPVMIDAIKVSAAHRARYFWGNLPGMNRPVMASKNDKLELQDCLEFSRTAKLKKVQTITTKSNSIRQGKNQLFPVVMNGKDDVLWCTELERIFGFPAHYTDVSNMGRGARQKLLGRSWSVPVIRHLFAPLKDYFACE

Sequence	relative CpG methylation activity
TACCGGAT	0.685
ACGCGGAG	0.383
GCGCGCCC	0.929
GTGCGGCA	1.66
AAGCGACT	0.72
AAACGGGT	1.45
CATCGCAT	0.619
CACCGCCC	0.68
ACACGGAT	1.11
ATACGAAG	1.39
GACCGCCC	0.598
CAGCGCTG	0.635
AGACGAAT	1.31
GCTCGTCG	0.591
CGCCGGCT	1.19
GCGCGGTT	0.895
GGTCGAGT	1.27
TGCCGGTG	0.867
GTCCGCGA	0.483
GGTCGATT	1.49
GGACGGCA	1.53
CTACGCCT	1.59
TTGCGGTT	0.825
ATTCGTCG	0.579
TGTCGTGT	0.413

Sequence	relative CpG methylation activity
GAGCGGTA	0.881
CTTCGTCC	1.6
AAACGGCC	1.76
CTTCGCGT	1.08
TTGCGCAA	0.608
TTCCGCAA	0.884
AGGCGCAA	0.224
ATCCGAAG	1.04
TCCCGTGC	0.849
GTACGCCT	1.73
CTTCGACC	1.71
CTCCGGAT	1.23
CAGCGCTT	0.781
TTTCGTGT	0.347
GTGCGGGC	1.54
ATGCGCCT	1.15
GTTCGACG	1.54
CAACGGGG	1.39
AAACGCCG	1.33
CGCCGTAT	0.231
GTACGACC	1.61
GGACGTTA	0.659
AGACGTGC	0.61
GGGCGCTA	0.452
AATCGTTC	0.607

Sequence	relative CpG methylation activity
TCCCGCCG	0.883
ACCCGCGA	0.371
AGGCGGCA	0.883
TCGCGCAA	0.463
GATCGCGT	0.655
ATCCGTAA	0.483
GGCCGTGT	0.365
GCACGGCG	1.62
GGACGGCG	1.53
ATACGTTA	0.816
CCTCGTGC	0.665
CCTCGGAA	0.952
ATCCGGAA	1.02
TACCGTAA	0.238
GCGCGGCA	1.52
TTCCGGGC	1.7
TTTCGAGG	1.47
GTCCGCAA	0.669
TCCCGGCT	1.95
TTACGATA	1.94
GTTCGTCG	0.627
GTCCGGCT	1.82
CTCCGCCT	1.22
GGACGGAG	0.502
CACCGCGC	0.452

Sequence	relative CpG methylation activity
CATCGTCC	0.944
AGGCGATC	1.05
TATCGTTG	0.446
TTTCGTCG	0.861
TCCCGCGT	0.535
GGGCGGCA	1.31
TTGCGCGG	0.775
ATGCGCCG	1.04
TCACGATG	1.47
TCGCGGTA	1.02
ATGCGCTC	0.975
CAGCGTTA	0.542
AGTCGGGG	1.15
ACGCGGGG	0.967
CGACGAGC	1.5
TGACGGTA	0.873
CGACGCGG	0.826
AGACGCTC	1.25
CTCCGGCT	1.84
GATCGGTG	1.14
CCTCGCTA	0.769
ACCCGTTA	0.355
AAGCGCTG	0.58
TCGCGACC	0.905
AGTCGGGA	1.53

Sequence	relative CpG methylation activity
AATCGGTC	1.53
TACCGGGG	0.804
TGACGCTA	0.63
ACCCGTCC	1.09
CCTCGATC	1.57
AAGCGCGC	0.503
TCGCGAGC	1.28
ACGCGCTG	0.784
CCACGGTA	1.37
AAACGTTT	0.761
TCCCGGTT	1.35
CTACGAGT	1.96
CATCGAAA	1.69
ACTCGATA	1.57
TTCCGCCA	1.2
CTACGTCA	1.82
CGCCGAAG	0.934
ACTCGCGA	0.391
CTACGGAG	1.52
CTCCGATT	1.69
ATGCGCCC	1.01
GCGCGCTC	0.774
ATGCGTGA	0.463
CGCCGTAA	0.156
TCACGAAT	1.39

Sequence	relative CpG methylation activity
TACCGGTT	1.02
CAGCGAGC	1.41
GAACGCTC	1.34
CTACGTTC	1.23
TTCCGCTC	1.27
CCCCGGAC	1.22
CAACGGAG	1.04
ATTCGCAT	0.486
GTGCGCAA	0.688
ATTCGATT	1.69
CGTCGTGA	0.256
AATCGATC	1.49
GTACGCGC	1.62
TGCCGACC	0.967
ACACGTAA	0.802
TTACGATT	2.01
AAACGACG	1.42
GGACGCCG	1.1
TGCCGATC	1.3
CACCGTTG	0.195
GCGCGTCA	0.557
TATCGTGT	0.189
TCCCGATT	1.46
ACTCGATT	1.52
ATGCGACC	1.14

Sequence	relative CpG methylation activity
ACGCGACA	0.917
ACGCGACT	1.12
GCGCGTCG	0.645
GAGCGTTC	0.748
CTCCGGGG	1.56
CTGCGAAT	0.954
GCCCGCCG	0.794
GTTCGCCG	0.978
GCGCGGCC	1.19
AACCGGAA	0.489
CCGCGTCG	0.711
GGGCGTCA	0.385
CTTCGTCT	0.992
AGTCGAAC	1.34
TGGCGTCT	0.488
GCCCGTTC	0.786
TCTCGATG	1.13
CGCCGGGG	0.825
ATTCGTCC	0.914
GCCCGACG	1.16
GTCCGTAA	0.521
ATTCGTGC	0.671
CATCGAAG	1.16
GAACGATC	1.71
CGTCGAGG	1.27

Sequence	relative CpG methylation activity
TCTCGTAT	0.505
TGCCGTGC	0.41
GAACGAAT	1.45
TCGCGTGT	0.272
CGTCGTGC	0.639
TCCCGTGA	0.497
TCGCGATA	1.34
TGACGATA	1.32
GGCCGTAA	0.188
CGTCGGTC	1.47
TTTCGAAG	1.54
AACCGAAA	0.932
TACCGGTA	1.11
CGACGACT	0.873
AGACGATA	1.67
TGGCGTGC	0.174
ATACGCAT	1.26
TCACGGGG	1.37
GACCGGAG	0.548
AGACGTGT	0.652
ATACGGCA	2.11
ACCCGATT	1.41
CCGCGCTA	0.71
TTTCGCAC	0.941
CAACGTGG	0.677

Sequence	relative CpG methylation activity
GTTCGAGG	1.32
GAGCGGAC	0.583
TACCGTTA	0.286
TACCGACG	1.21
ACACGCTA	1.07
CTCCGTAC	1.58
GCGCGAAC	1.13
CTACGCCC	1.87
TAACGACA	1.33
CTCCGCAT	0.91
GGCCGGCG	0.897
AATCGAAC	1.47
CTTCGAAC	1.98
CCGCGACT	0.98
TGACGAAT	1.17
GGGCGGCT	0.777
TACCGGAC	0.739
AGACGCGG	1.03
GCGCGACA	0.777
